Measured values reported in article PMC4336329 (PLoS ONE, 2015).
About 2,200 (0.71%) of roughly 310,000 compounds showed an effect of 50% or more. The effect is printed as a negative number. Some of the results follow.

target: human ether-à-go-go-related gene (hERG) potassium channel (human, UniProt Q12809); assay: primary screen, population patch clamp on CHO cells stably expressing hERG
Sequence (Q12809 whole entry, looked up): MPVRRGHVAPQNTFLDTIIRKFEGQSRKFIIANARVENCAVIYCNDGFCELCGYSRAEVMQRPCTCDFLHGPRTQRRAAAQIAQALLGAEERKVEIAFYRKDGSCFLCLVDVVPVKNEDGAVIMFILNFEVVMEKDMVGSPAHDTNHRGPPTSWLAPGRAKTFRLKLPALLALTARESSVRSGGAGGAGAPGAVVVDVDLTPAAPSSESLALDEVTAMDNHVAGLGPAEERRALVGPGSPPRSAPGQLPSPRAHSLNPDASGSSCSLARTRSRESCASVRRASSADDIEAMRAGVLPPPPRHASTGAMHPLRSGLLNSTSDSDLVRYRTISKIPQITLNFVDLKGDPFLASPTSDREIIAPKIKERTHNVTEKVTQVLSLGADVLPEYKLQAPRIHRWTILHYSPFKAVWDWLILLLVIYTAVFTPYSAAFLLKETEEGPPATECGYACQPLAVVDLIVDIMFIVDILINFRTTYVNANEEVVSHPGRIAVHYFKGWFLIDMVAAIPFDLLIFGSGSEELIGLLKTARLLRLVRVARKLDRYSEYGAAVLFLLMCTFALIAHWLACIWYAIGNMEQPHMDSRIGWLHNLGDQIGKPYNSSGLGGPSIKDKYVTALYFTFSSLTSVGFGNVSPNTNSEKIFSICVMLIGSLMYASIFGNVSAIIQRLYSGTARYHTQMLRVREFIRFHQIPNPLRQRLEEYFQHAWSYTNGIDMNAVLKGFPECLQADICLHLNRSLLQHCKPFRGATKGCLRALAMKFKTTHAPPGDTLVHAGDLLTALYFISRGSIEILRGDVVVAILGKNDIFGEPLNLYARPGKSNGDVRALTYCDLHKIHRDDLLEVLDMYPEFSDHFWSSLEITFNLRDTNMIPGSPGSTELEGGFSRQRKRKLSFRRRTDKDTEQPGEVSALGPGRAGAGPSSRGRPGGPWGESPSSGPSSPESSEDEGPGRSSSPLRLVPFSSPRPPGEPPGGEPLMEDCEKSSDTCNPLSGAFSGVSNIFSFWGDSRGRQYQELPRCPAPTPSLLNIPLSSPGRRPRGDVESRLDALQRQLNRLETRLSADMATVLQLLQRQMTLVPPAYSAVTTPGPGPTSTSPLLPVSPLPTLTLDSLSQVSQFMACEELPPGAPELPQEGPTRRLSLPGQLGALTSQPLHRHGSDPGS

Row | SMILES | hERG current change (%, negative = inhibition) at 1uM [%]
1 | Cc1nc(Oc2ccc(S(=O)(=O)N3CCOCC3)cc2Cl)c2c3c(sc2n1)CCCC3 | 8.8
2 | CC(=O)Nc1ccc(C(=O)COC(=O)c2nc3nc(C)cc(C)n3n2)cc1 | 5.04
3 | COc1ccc(CCNC(=O)CCC(=O)N2CCOc3ccc(C)cc32)cc1OC | 13.9
4 | COc1ccc(CCNC(=O)Cc2cc(OCc3ccccc3)c(OC)cc2[N+](=O)[O-])cc1OC | 0.64
5 | COc1cccc(NS(=O)(=O)c2ccc3[nH]cc(C(=O)NCCC(C)C)c(=O)c3c2)c1 | 5.44
6 | CCOc1ccc2nc(C)cc(Nc3ccc(N4CCOCC4)cc3)c2c1.Cl | -60.6
7 | Cn1c(=O)[nH]c(=O)c2c1nc(N1CCCCC1)n2CC(O)CN1CCCCC1 (stereo not shown) | 8.07
8 | O=C(Nc1nnc(Cc2ccccc2)s1)c1cnccn1 | 12.6
9 | CC(C)CNC(=O)CSc1ccc(S(=O)(=O)N2CCN(C)CC2)cn1 | 10.7
10 | CCNc1nc(N)c(C(=C(C#N)C#N)c2ccccc2)s1 | 12.1
11 | C=CCN(CC=C)C(=O)COC(=O)c1ccc(Sc2ncn[nH]2)c([N+](=O)[O-])c1 | 10.1
12 | CC1CCN(c2c(NCc3ccc(C(=O)NCc4ccco4)cc3)c(=O)c2=O)CC1 | 6.87
13 | COc1ccc(CC(=O)Nc2ccc(-c3nnc(-c4ccccc4)o3)cc2)cc1OC | -1.29
14 | COc1ccc2[nH]c(O)c(N=NC(=N)N)c2c1 | 11.9
15 | O=C(Cn1c2ccccc2c2nc3n(c(=O)c21)CCCS3)Nc1ccccc1 | 6.47
16 | COc1ccc(OCc2cc(C(=O)NCc3cccc(C)n3)no2)c(Cl)c1 | 6.97
17 | CCOc1ccc(N(CC(=O)NC2CC2)S(=O)(=O)c2ccc(C)cc2)cc1 | 19.9
18 | CCCCOc1ccc(OC(=O)c2cccnc2)cc1 | 10.5
19 | CCN(CC(=O)Nc1cccc(OC)c1)C(=O)c1ccncc1 | 15.4
20 | COc1cc(C(=O)OCC(=O)NC2CCCCCC2)ccc1OCC(C)C | 18.2
21 | CCN(C(=O)c1cc2cccc(OC)c2oc1=O)C1CCCCC1 | 7.51
22 | COc1ccc(OCCSc2nnc(-c3cccnc3)n2N)cc1 | 8.95

Row | SMILES | hERG current change (%, negative = inhibition) at 1uM [%]
23 | CCOc1ccc(S(=O)(=O)N2CCCC(C(=O)NC3CC3)C2)cc1Cl (stereo not shown) | 8.25
24 | COC(OC)c1ccnc(-c2ccc(OC(C)=O)cc2)n1 | 29.3
25 | O=C(Oc1ccccc1N1C(=O)CCC1=O)c1ccco1 | 7.02
26 | COc1ccc2c(c1)c1nnc(SC)nc1n2C | 8.09
27 | CCCn1nnc(NC(=O)c2cc3ccccc3o2)n1 | 17.5
28 | O=c1c(Cc2c(F)cccc2Cl)c(O)ccn1CC1CCCO1 (stereo not shown) | 8.23
29 | CN=C1SC(CC(=O)Nc2cc(Cl)ccc2Cl)C(=O)N1C (stereo not shown) | 10.5
30 | COc1ccc2sc(-c3ccc(N(C)C)cc3)c(C#CCO)c2c1 | 13.8
31 | COc1cc(/C=N/NC(=O)c2cccc(NC(=O)c3ccccc3Cl)c2)ccc1O | 10.1
32 | CCOC(=O)C1(CCOc2ccccc2)CCN(Cc2cccn2-c2ncccn2)CC1 | -81.6
33 | Cc1ccc(NC(=O)CSc2nc3[nH]ncc3c(=O)[nH]2)cc1 | 5.39
34 | COc1ccc2nc(NC3=NC(C(=O)Nc4ccc(C)cc4)CC(=O)N3)nc(C)c2c1 (stereo not shown) | 8.26
35 | CC1(C)Cc2c(sc3c2c2ncnn2c2nnc(SCC(=O)NCc4ccco4)n32)CO1 | 4.47
36 | CC(C)(C)c1ccc(C(=S)N2CCN(c3ccccc3)CC2)cc1 | 12.6
37 | C=CCN=c1scc(-c2ccco2)n1/N=C/c1ccc(O)c(O)c1O | 10.7
38 | O=C([O-])c1cc(-c2cccnc2)nc2ccccc12.[K+] | 7.92
39 | O=c1c2c3c(sc2nc(NCCO)n1Cc1ccco1)CCCCC3 | 17.2
40 | COCc1c(C(=O)N/N=C/c2ccncc2)nnn1-c1nonc1N | 8.1
41 | CSCCC(NS(=O)(=O)c1ccc2c(c1)Cc1cc(S(=O)(=O)NC(CCSC)C(=O)O)ccc1-2)C(=O)O (stereo not shown) | 21.8
42 | Cc1cccc(-n2cc(-c3ccccc3)c3c(N4CCOCC4)ncnc32)c1 | 11
43 | CCC(=O)Nc1cccc(C(=O)/C=C/c2ccc(F)cc2)c1 | -26
